Assay results from PubChem BioAssay AID1963576 (National Center for Advancing Translational Sciences (NCATS), 2024).
About 60 (0.1%) of roughly 46,000 compounds were called active. Not shown: some 3% with an inconclusive outcome. Calls follow the shape of the dose curve; as a rule, active = well fitted inhibition curve with a large enough effect; inconclusive = small, poorly fitted or top-dose-only effect; inactive = no such curve, though single readings can be large or run the other way. The list shows a part of the results.

Test: Primary qHTS assay for Inhibitors of ovarian cancer metastasis using an organotypic tumor microenvironment (TME) model. Also: nearly all actives have a fitted effect of over 65% in size.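 As to activity change, negative = inhibition: plate controls were DMSO wells for no effect and tomatine positive control wells for full effect.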
Conditions: SKOV3ip1-GFP adhesion/invasion on 3D omental model, fluorescence; series mostly up to 45.8 µM; activity change, negative = inhibition: at the top concentration
Method in brief: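 qHTS, 4-pt dose (0.36-46 umol/L); SKOV3ip1-GFP, 1,200 cells/well, no FBS; primary omental fibroblast/mesothelial co-culture 48 h pre-grown; 2 h RT + 16 h 37 C; PBS wash, 4% PFA; GFP count 488/509 nm.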

outcome, inactive:
CC(=O)N1CCc2c(sc3c2c(=O)n(-c2ccccc2)c(=O)n3CC(=O)c2ccc(Cl)cc2)C1, CC(C)(C)C(=O)Nc1cc(-c2cccc(Br)c2)nn1-c1ccccc1, COc1ccc(NC(=O)c2cc(S(=O)(=O)N3CCOCC3)cn2C)cc1Cl, Cc1cccc(C)c1OCc1cc(=O)n2c(-c3ccccc3)csc2n1, Cn1nc(-c2ccc(OCC(=O)Nc3cccc(C(F)(F)F)c3)cc2)c2ccccc2c1=O, CC(C)c1ccc2oc(-c3ccc(Cl)c(NC(=O)c4cccs4)c3)nc2c1, O=C1CS(=O)(=O)C2(C(=O)Nc3ccccc32)N1c1cccc(Cl)c1 (configuration not stated), Cc1ccc(Sc2c(C)nn(C(=O)COc3ccccc3)c2C)cc1

Activity change, negative = inhibition, inactive:
NC(=O)c1ccc(N(C(N)=O)c2c(F)cccc2F)nc1-c1ccc(F)cc1F 6.85%, COc1ccccc1NC(=O)C(Cc1ccccc1)NS(=O)(=O)c1ccc2c(c1)CCN2C(C)=O (configuration not stated) 0.907%, O=C(O)c1ccc(Nc2nc3ccccc3c3nncn23)cc1 8.36%, CC(=O)N1CCOc2cc(S(=O)(=O)NCc3ccccc3Cl)c(C)cc21 11%, Cc1cc(C)c(NC(=O)Cn2c(=O)n(-c3cccc(C(F)(F)F)c3)c(=O)c3c(C)c(C)sc32)c(C)c1 -5.02%, COc1ccc(-c2cc3nc(N)cc(=O)n3[nH]2)cc1 20.8%, CCC(=O)N1c2ccccc2CC1C(=O)NCCCN1CCN(c2cc(C)ccc2C)CC1 (configuration not stated) 4.28%, CCN(C(=O)c1ccc2c(c1)N(Cc1cccc(Cl)c1)C(=O)c1ccccc1S2=O)c1ccccc1 (configuration not stated) -6.61%, CC(=O)Oc1ccccc1C(=O)Nc1ncc([N+](=O)[O-])s1 17.3% [at 92.2 µM], CCOC(=O)c1ccc(NC(=O)CSc2nc3ncc(Br)c(C)c3[nH]2)cc1 -3.11%, COCCCNC(=O)c1ccc(Cn2c(=O)c3ccccc3n(CC(N)=O)c2=O)cc1 -4.44%, Cc1ccc(C(=O)Nc2ccc(F)cc2)cc1S(=O)(=O)N1CCCCCC1 -17.7%, Cc1ccc(C)c(CSc2nc3c([nH]c4ccccc43)c(=O)n2C)c1 5.49%, O=C(NCCCc1nc2ccccc2n1Cc1ccc(F)cc1)C1CCCCC1 -0.314%, CCOc1ccc(NC(=O)CCCc2nc(-c3cccc(OC)c3)no2)cc1 -7.24%, COc1cccc2c1cc1c(=O)n(CC(=O)N3CCN(c4ccccc4F)CC3)nc(C)n12 18%, Cc1ccc(CNC(=O)c2sc3nc(C)cc(C)c3c2-n2cccc2)cc1 -12.5%, CC1=C(c2ccc(F)cc2)S(=O)(=O)N=C1N1CCC(C(=O)NCCc2ccco2)CC1 -1.91%, Cn1cnc(S(=O)(=O)N2CCC(C(=O)NCc3ccccc3)CC2)c1 -0.151%
